Results published in the supplement of paper PMC3334620.
In all, about 33,000 sequences were measured (“E-score (-0.5 to 0.5)”: median about -0.035, highest 2% from about 0.34 on). The list shows a part of the results.

molecular target: T1, Mot3 (UniProt P54785); test: PBM E-score (8-mer binding enrichment) (E-score (-0.5 to 0.5)); higher = stronger / more preferred TF binding; most listed sequences are background and not binding sites; details: protein concentration: 200 nM; construct: GST-full length
T1 sequence: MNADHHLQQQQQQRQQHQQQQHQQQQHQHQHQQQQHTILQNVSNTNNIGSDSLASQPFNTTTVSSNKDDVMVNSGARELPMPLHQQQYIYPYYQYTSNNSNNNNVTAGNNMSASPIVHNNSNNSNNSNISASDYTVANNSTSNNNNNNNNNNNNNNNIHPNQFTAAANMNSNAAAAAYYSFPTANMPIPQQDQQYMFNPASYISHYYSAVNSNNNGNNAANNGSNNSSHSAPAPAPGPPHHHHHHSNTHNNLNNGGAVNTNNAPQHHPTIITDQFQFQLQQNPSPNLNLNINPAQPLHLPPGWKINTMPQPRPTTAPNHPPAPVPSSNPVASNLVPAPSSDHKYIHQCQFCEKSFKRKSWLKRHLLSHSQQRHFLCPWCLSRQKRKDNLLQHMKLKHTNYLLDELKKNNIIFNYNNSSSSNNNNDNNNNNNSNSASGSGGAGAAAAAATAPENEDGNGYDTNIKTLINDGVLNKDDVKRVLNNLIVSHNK
Summary of the method: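 Universal all-10-mer Agilent arrays, fresh or stripped once, were converted to double-stranded form by primer extension. GST-tagged yeast transcription factors from PURExpress in vitro transcription/translation, full-length or DNA-binding domain only, were applied at about 100-200 nM and detected with fluorescent anti-GST. After masliner normalisation, the Universal PBM Analysis Suite scored each ungapped eight-base word together with its reverse complement by E-score.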

Sequence | PBM E-score
TGTAGCAA | 0.157
GGGCAGGA | 0.00356
AAGCTTCC | -0.11
ATTATGTC | 0.13
CTGTAGCC | -0.0392
ACGATCCA | -0.0439
TAATAACA | 0.284
GCCATGTA | 0.383
AACTTTAT | 0.197
AGACAAAG | -0.0532
CAGTAATC | -0.0977
CGAATGAG | -0.134
ATTTTACG | 0.268
ATAGATCC | -0.206
AGACGAGA | -0.0859
CCTCTAAC | -0.0721
GGCTAAAA | -0.207
ACTGACAT | 0.0766
CCACGTAA | 0.271
GCAATGCC | 0.0774
GTCCCCCA | -0.112
CCTAAGAA | 0.191
ATATTCAA | 0.0249
GGACAAGA | -0.102
ACCGGATC | -0.048

Sequence | PBM E-score
CTTAGTCA | -0.182
AAGCTACG | -0.051
GTATTGGA | -0.037
GATTGAGA | 0.0267
AAGGTTGG | -0.097
CCACTCCG | -0.351
GATAGTCC | -0.0634
GCATCGCA | -0.36
AATTAGAT | 0.15
GCCGAAAC | -0.29
AACGATAC | 0.00245
AAGTATGG | -0.0425
ATTAGTAC | 0.116
ATGGGCGG | -0.112
AATAATTA | 0.172
GATAGACA | -0.0104
CCAGTCGG | -0.114
ATCCTGTG | 0.186
GGTAGGTA | 0.269
GCGTCCGA | -0.095
AGCGTTTC | 0.127
CCCAATAG | 0.111
CTAAGATC | -0.179
AGGGGGCC | -0.269
GCAGATCC | -0.0612

Sequence | PBM E-score
CCACATTC | -0.222
AGGTGACT | 0.156
CTTTCCGC | -0.109
TGACCTAA | 0.0576
CATTAGCA | 0.135
AGATTAGG | 0.042
GCCAACCA | -0.315
CGTGCGTA | 0.277
AGCCGGAA | -0.0394
AAACATTC | -0.0209
GGCGGATA | -0.0138
GCCCGGCC | -0.182
ATTCCAAC | 0.00023
AAGGTTAA | 0.0994
CGACGACC | -0.311
CGCCTTCC | -0.00115
ACGTAGCA | 0.0713
ACAGCCGA | -0.138
AACGGAAT | -0.0211
AGCCTTTG | 0.0698
CGAGCACA | 0.0344
CGCGCTAA | 0.0891
GAATGTAA | 0.295
CCCAAAGC | -0.272
AGTAACCC | -0.0877

Sequence | PBM E-score
AAGCCATT | -0.0129
AACTATTG | -0.0347
TTACGAAA | 0.119
ACGACTCG | -0.0679
TCACGACA | 0.163
AGTAGGCA | 0.481
AGTGACAA | -0.0444
CCTCTCCG | -0.182
CGGTAATA | -0.00636
GAATATAA | -0.0894
AGGAGGCC | -0.263
CTCGGGTC | -0.264
GATACTAC | -0.044
ATAGCTTC | -0.284
AATGCCCT | -0.189
CCATGTAG | 0.346
ATCTGACA | -0.0806
AGCTCTCG | -0.181
TGATCGCA | -0.0867
ACGGTCGG | -0.0663
CTAGAAAC | -0.0677
GGTGCCGA | 0.0164
AAGAAAGA | -0.0446
AGGAGTGC | -0.146
GAAACCTC | -0.145

Sequence | PBM E-score
AGATGAGG | -0.208
CCCTCAAC | -0.239
CGATATCG | 0.0549
ACAGAAAC | 0.198
CAGGTAAC | 0.39
CGTATCTA | -0.052
CTGCATCA | 0.155
GCCTCCGA | 0.0149
ATCAGCGC | -0.0594
AGACACTG | -0.188
CCGCTCAA | -0.0748
ATATACAC | 0.358
AACAACGG | 0.105
CCTACTTC | -0.0137
AAAGGGGT | 0.124
AGTCAATG | -0.0698
GATCGGGA | -0.259
CTAAATAG | -0.0131
CGTAGTAC | 0.0807
CCTGTGTC | 0.194
AGGGGAAG | -0.188
CGTAGTCA | 0.0231
TACAGAAA | 0.046
CGACCTCC | -0.141
ACTTGAAT | 0.102

Sequence | PBM E-score
ACCAGCCG | -0.216
ATAGTTGC | 0.0674
CAGGTGGC | -0.216
AATCATTA | 0.0151
CCTCAGTA | -0.209
GAGGATAC | -0.118
CCAGTTCA | -0.101
CCGGTCAA | -0.0358
CGGCACCC | -0.126
CATCGCGA | -0.0776
CAAGACTC | -0.279
ATCTCAAG | -0.00251
AGGCTTGA | -0.0982
CGACGTGA | 0.098
AGCTCAAA | 0.132
GGAGGAAC | 0.272
CGGTCAAA | 0.0302
ATAAGGCG | 0.0672
GGCTGAGA | -0.183
CGTCCTCA | -0.121
AAAAACAA | 0.244
CCATGGTC | -0.066
ACCCCCTC | -0.168
GACAACTC | -0.0464
ATGGCGAA | -0.149

Sequence | PBM E-score
ATGCAGAG | -0.0249
GATCCCGA | -0.316
ATATGGAG | -0.00103
CCCCCGGC | -0.249
CACGGCTG | -0.136
GTAAGGCA | 0.464
AGGTCCCG | -0.243
GTCCATCA | -0.187
ACCGTACC | 0.0886
GGGATCGA | -0.136
CGCACCAA | -0.0888
ACGAATTC | -0.071
GTACCGAA | 0.0806
AGCTGGGG | -0.248
CAGCCCCC | -0.268
CTGGGAGA | -0.0824
AGCAAGCA | -0.127
AACTGTGT | 0.297
GCTTGACA | 0.141
ACGGCCAT | -0.187
GCCCCCGC | -0.325
GACGCTGA | 0.0483
